Laboratory results reported in article PMC8061361.
Where a chain is given by its changes, count along the chain named. These are yes or no findings as the source states them, for the method shown. In cells and extracts the contact can be indirect. Some entries that bind do so weakly or less than the wild type. For part of these data: Sequences can lack the tags named with a protein.

Sequences of proteins named here, by UniProt entry; tags and fusion partners are left off. A change or cut given only in a name is not applied to a line headed by its entry. A line that says so, or that is headed by a name, gives the form on record, which may keep a tag or linker. Residues count along the entry.
endogenous apoptosis-inducing factor (AIF), wild type (human (endogenous in 293T and ESCC cell lines)) (O95831, residues 102-613): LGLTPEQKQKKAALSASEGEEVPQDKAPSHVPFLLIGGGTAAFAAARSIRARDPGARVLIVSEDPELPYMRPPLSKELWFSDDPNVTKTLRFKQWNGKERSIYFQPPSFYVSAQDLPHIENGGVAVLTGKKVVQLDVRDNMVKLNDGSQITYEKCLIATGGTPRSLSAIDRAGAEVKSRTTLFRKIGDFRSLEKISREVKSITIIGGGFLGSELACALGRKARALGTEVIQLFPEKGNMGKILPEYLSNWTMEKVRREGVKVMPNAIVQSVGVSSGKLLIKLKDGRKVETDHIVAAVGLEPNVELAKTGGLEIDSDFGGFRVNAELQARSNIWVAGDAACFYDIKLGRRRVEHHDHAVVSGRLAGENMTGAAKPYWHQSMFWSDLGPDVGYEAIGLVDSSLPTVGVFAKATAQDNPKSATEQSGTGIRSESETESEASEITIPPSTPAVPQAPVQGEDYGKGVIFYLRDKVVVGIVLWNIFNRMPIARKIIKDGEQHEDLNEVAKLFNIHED
endogenous AIF K244R (CRISPR knock-in, KYSE150) (human (endogenous in KYSE150)) (O95831, form named): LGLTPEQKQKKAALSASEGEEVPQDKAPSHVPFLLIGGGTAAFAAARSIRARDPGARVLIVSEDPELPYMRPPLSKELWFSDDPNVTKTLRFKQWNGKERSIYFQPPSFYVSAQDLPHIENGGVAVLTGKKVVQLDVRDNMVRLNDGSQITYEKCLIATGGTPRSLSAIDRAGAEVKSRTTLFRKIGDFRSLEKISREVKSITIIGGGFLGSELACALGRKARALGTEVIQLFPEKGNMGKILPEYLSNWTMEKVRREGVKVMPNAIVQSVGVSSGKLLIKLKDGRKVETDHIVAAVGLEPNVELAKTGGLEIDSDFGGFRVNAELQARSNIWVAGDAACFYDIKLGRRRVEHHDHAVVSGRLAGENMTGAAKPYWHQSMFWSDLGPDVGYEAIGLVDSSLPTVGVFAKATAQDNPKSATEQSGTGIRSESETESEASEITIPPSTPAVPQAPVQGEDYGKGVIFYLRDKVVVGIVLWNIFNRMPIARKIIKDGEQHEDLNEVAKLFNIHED
endogenous AIF K255R (CRISPR knock-in, KYSE150) (human (endogenous in KYSE150)) (O95831, form named): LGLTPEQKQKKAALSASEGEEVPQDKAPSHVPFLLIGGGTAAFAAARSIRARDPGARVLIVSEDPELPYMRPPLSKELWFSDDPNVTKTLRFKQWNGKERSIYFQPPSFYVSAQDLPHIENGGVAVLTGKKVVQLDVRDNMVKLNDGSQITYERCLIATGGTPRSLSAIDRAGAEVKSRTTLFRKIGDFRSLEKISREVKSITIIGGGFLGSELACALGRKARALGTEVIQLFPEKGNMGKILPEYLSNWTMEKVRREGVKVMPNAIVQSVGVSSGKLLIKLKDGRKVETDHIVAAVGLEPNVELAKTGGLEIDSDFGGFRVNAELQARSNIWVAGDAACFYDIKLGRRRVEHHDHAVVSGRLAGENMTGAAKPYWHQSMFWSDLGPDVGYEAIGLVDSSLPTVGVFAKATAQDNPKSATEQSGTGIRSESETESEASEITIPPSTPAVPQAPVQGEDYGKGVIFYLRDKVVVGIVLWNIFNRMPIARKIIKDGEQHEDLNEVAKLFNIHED
UniProt Q13619: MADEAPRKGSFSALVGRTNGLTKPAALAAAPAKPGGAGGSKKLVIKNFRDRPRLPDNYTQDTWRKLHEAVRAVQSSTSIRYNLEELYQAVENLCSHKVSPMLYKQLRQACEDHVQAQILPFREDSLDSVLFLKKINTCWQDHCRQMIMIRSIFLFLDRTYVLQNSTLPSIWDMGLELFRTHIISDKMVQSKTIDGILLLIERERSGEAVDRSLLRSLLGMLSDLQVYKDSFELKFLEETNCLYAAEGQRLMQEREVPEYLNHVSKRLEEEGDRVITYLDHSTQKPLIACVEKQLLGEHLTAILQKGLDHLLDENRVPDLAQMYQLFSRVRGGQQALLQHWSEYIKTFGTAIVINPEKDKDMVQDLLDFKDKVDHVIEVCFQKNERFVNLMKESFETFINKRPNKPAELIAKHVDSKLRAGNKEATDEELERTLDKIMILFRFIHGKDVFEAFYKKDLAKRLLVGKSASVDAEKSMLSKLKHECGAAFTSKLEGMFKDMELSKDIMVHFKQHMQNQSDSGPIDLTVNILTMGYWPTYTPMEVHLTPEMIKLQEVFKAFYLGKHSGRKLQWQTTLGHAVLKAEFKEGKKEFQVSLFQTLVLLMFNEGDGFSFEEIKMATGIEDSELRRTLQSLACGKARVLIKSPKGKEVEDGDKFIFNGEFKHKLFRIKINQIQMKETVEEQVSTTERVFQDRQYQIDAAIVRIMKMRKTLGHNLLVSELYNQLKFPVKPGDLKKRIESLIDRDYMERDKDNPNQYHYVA
UniProt Q16531: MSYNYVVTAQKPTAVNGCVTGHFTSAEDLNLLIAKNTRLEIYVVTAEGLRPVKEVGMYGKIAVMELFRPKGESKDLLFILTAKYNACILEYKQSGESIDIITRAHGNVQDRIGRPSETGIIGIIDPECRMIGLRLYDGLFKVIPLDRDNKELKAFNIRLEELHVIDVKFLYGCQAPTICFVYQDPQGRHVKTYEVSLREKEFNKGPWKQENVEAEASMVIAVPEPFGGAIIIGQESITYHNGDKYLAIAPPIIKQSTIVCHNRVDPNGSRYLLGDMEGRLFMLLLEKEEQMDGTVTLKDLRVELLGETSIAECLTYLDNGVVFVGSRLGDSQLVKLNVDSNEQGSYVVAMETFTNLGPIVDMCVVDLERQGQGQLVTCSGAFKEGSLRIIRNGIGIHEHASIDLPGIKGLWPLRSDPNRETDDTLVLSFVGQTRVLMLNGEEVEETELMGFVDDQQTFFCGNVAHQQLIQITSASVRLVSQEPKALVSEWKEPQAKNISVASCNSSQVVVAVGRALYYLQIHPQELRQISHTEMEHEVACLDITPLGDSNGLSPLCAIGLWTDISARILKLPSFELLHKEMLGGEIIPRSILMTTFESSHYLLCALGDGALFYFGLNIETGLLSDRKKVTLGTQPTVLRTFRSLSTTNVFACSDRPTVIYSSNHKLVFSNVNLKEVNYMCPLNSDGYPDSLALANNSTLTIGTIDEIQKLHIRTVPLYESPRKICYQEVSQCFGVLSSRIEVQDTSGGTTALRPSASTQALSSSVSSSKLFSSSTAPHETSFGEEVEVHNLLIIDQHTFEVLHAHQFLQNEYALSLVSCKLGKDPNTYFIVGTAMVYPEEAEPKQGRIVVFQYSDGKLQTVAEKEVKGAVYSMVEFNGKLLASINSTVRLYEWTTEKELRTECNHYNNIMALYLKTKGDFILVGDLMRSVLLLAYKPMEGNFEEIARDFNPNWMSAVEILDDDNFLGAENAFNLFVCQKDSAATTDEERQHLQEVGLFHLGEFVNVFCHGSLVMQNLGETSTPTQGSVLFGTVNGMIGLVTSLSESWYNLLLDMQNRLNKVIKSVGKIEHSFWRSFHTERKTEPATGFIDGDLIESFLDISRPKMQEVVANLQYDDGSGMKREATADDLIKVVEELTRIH

T1: V5-tagged OTUD1 (UniProt Q5VV17)
T1 sequence: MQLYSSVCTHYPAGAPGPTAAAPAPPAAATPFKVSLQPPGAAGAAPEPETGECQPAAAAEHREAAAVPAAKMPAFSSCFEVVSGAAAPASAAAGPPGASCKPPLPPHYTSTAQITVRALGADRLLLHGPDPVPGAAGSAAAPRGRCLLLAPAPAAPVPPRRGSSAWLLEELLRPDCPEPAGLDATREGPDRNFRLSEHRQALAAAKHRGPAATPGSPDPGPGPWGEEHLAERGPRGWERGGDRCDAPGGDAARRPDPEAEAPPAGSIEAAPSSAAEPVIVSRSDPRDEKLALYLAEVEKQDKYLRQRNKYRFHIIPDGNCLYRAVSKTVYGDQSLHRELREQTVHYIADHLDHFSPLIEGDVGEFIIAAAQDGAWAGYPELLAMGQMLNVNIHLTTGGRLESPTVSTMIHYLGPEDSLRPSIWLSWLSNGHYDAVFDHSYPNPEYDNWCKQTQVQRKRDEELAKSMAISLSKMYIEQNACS

T2: OTUD1 C320A (co-IP assays of Figure 6E-G; tag not given) (UniProt Q5VV17)
T2 sequence: T1 sequence with C320A

T3: wild-type OTUD1 (co-IP assays of Figures 6E-G, S3D, S7; tag not given) (UniProt Q5VV17)
T3 sequence: T1 sequence

B1: macrophage migration inhibitory factor (MIF) (protein, UniProt P14174 1-115)
chain: MPMFIVNTNVPRASVPDGFLSELTQQLAQATGKPPQYIAVHVVPDQLMAFGGSSEPCALCSLHSIGKIGGAQNRSYSKLLCGLLAERLRISPDRVYINYYDMNAANVGWNNSTFA
B2: coiled-coil-helix-coiled-coil-helix domain 4 (CHCHD4) (protein, UniProt Q8N4Q1 1-142)
chain: MSYCRQEGKDRIIFVTKEDHETPSSAELVADDPNDPYEEHGLILPNGNINWNCPCLGGMASGPCGEQFKSAFSCFHYSTEEIKGSDCVDQFRAMQECMQKYPDLYPQEDEDEEEEREKKPAEQAEETAPIEATATKEEEGSS
B3: DCAF10 (co-IPs of Figure 6E-G and Figure S7; tag not told in the text) (protein, UniProt Q5QP82 1-559)
chain: MFPFGPHSPGGDGSAGAGAEEPTPHEGQAAATGPPSPLHPGADATHPPPPARSPRRPGAPSLSPAPRSGELGLPGAPESSTASAPGEPSPPSPPCRRPGPDCRAKSRGRHGLGAGLGGPGARLFGWLKERSLGRGLFVDPARDNFRTMTSLYGSIHPADSVYLSTRTHGAVFNLEYSPDGSVLTVACEQTEVLLFDPISSKHIKTLSEAHEDCVNNIRFLDNRLFATCSDDTTIALWDLRKLNTKVCTLHGHTSWVKNIEYDTNTRLLVTSGFDGNVIIWDTNRYTEDGCPHKKFFHTRFLMRMRLTPDCSKMLISTSSGYLLILHDLDLTKSLEVGSYPILRARRTTSSSDLTTSSSSSGPRVSGSPCHHSDSNSSEKHMSRASQREGVSPRNSLEVVTPEVLGESDHGNCITSLQLHPKGWATLLRCSSNSDDEECTCVYEFQEGAPVRPVSPRCSLRLTHYIEEANVGRGYIKELCFSPDGRMISSPHGYGIRLLGFDKQCSELVDCLPKEASPLRVIRSLYSHNDVVLTTKFSPTHCQIASGCLSGRVSLYQPKF
B4: GST-tagged DCAF10 (protein, UniProt Q5QP82 1-559)
chain: B3 chain

How the values were obtained:
V5-tagged OTUD1 = biological target: T1, V5-tagged OTUD1; test: co-IP; in vitro co-IP of V5-OTUD1 with GST-DDB1, GST-CUL4A or GST-DCAF10; GST proteins purified from E. coli, preparation of V5-OTUD1 not told
[1] = biological target: T2, OTUD1 C320A (co-IP assays of Figure 6E-G; tag not given); test: co-IP; in vivo co-IP of OTUD1 (wild type or C320A) with CUL4A, DDB1 and DCAF10 (Figure 6E-G); cells, tags and baits not given
[2] = biological target: endogenous AIF K244R (CRISPR knock-in, KYSE150) (human (endogenous in KYSE150)) (UniProt O95831); test: co-IP; endogenous proteins in ESCC cell lysates (two ESCC cell lines; KYSE150 with endogenous wild-type, K244R or K255R AIF, with or without OTUD1 depletion); anti-AIF antibody with protein A/G magnetic beads, overnight at 4 °C; immunoblot
[3] = biological target: endogenous AIF K255R (CRISPR knock-in, KYSE150) (human (endogenous in KYSE150)) (UniProt O95831); test: as above
[4] = biological target: endogenous apoptosis-inducing factor (AIF), wild type (human (endogenous in 293T and ESCC cell lines)) (UniProt O95831); test: as above
[5] = biological target: T3, wild-type OTUD1 (co-IP assays of Figures 6E-G, S3D, S7; tag not given); test: co-IP; in vivo co-IP of OTUD1 (wild type or C320A) with CUL4A, DDB1 and DCAF10 (Figure 6E-G); cells, tags and baits not given

Row | Molecule | binding (V5-tagged OTUD1) | binding [1] | other results
1 | GST-tagged CUL4A (from UniProt Q13619 1-759) | no binding |  | 
2 | DDB1 (co-IP of Figure 6E-G) (from UniProt Q16531 1-1140) |  | no binding | 
3 | cullin 4A (CUL4A) (co-IP of Figure 6E-G) (from UniProt Q13619 1-759) |  | no binding | 
4 | GST-tagged DDB1 (from UniProt Q16531 1-1140) | no binding |  | 
5 | B1 |  |  | binding [2]: binds; binding [3]: binds; binding [4]: binds
6 | B2 |  |  | binding [3]: binds; binding [4]: binds
7 | B3 |  | no binding | binding [5]: binds
8 | B4 | binds |  | 
